Data: ChEMBL document CHEMBL4888484, “Replenishing the malaria drug discovery pipeline: Screening and hit evaluation of the MMV Hit Generation Library 1 (HGL1) against asexual blood stage Plasmodium falciparum ,using a nano luciferase reporter read-out” (2022)
Screen size: about 150,000 compounds; about 540 (0.36%) showed an effect of 50% or more. The list shows a part of the results.

Tested on: Plasmodium falciparum
Assay: Primary screen in NF54 nanoGlo assay, in single point, at 2uM, 72h; a lower Z score goes with more inhibition
Type: functional, Erythrocyte
Conditions: timepoint 72 hour

SMILES	% Inhibition [%]	Z score
Cc1ccc(NC(=O)N2Cc3cncnc3C2)cc1C	-13	2.26
CC(C)n1ccc(CN2CCCN(CC(=O)N3CCCC3)CC2)n1	-1	0.19
O=C1N(c2cccc(F)c2)Cc2nn(Cc3cccc(Cl)c3)c(=O)n21	-5	0.7
COc1cc(COCC2CCN(S(=O)(=O)N(C)C)CC2)cc(OC)c1	5	-0.67
CC(=O)NC(C)(C)Cc1cccc(Br)c1	-21	2.86
O=C(Nc1ccncc1)N[C@H]1CCN(C2CC2)C1	-3	0.42
Cc1cccc(CNC[C@H]2CC[C@H](C(N)=O)CC2)c1C	14	-1.81
Cc1cc(S(=O)(=O)N[C@H]2CCc3cc(F)ccc32)cnc1N	7	-0.81
Cc1cnc(N2CCN(CC3CCC3)CC2)nc1	-8	1
COc1cccc(C(=O)N2CC3(CCCO3)C2C2CC2)c1 (configuration not stated)	-3	0.38
CNC(=O)C[C@H]1CCN(C(=O)COC(C)C)C1	2	-0.31
COC(=O)c1cc(C2CC2)nc2c1c(=O)n(CC(=O)NC1CCCCC1)c(=O)n2C	-6	0.81
Cc1cccc2c(N3CCCN(S(C)(=O)=O)CC3)c(C#N)cnc12	-1	0.08
C=CCN(C)C(=O)NCCC(=O)Nc1ccc(Br)cc1	-7	1.17
C/C=C/CC(=O)NCc1nc(-c2cccc(F)c2)c(-c2ccccn2)[nH]1	-10	1.17
CCC(C)N1C(=O)CCC1c1c(C)n(C)c2ccccc12 (configuration not stated)	-8	0.89
Cc1ccc(-c2ccc(=O)n(CCNC(=O)Nc3cccc(C)c3)n2)cc1	8	-1.24
O=C1CCc2cc(S(=O)(=O)N3CCCCCC3)cc3c2N1CCC3	-13	1.71
O=C(C1c2ccccc2Oc2ccccc21)N1CC(Nc2cnccn2)C1	-7	0.83

SMILES	% Inhibition [%]	Z score
CCNC(=O)C1CCCN(c2nc(OC)nc(N3CCCC(C(=O)NCC)C3)n2)C1 (configuration not stated)	4	-0.5
Cc1ccc(NC(=O)[C@@H]2CC=CCC2)c(-c2nc[nH]n2)c1	0	0.05
COc1ccc(-c2c(OC)nsc2CO)cn1	-5	0.59
O=C(COc1ccccc1)NCC#Cc1ccc(C(F)(F)F)cc1	-10	1.74
CCC1(CC)NC(=O)N(Cc2c(C)noc2C)C1=O	0	-0.03
CC(C)Oc1cccc(-c2nc(=O)c(CCC(=O)N3CCN(C(C)C)CC3)n[nH]2)c1	3	-0.45
COc1cc(C(=O)N2C[C@@H](CO)C[C@@H](CN3CCOCC3)C2)ccn1	-1	0.11
Cc1noc(CCCNC(=O)N(Cc2ccccc2F)C2CCC2)n1	-11	1.72
COCCN(Cc1ccsc1)C(=O)NC1CCOCC1	-11	1.21
COc1cccc(CNc2c(C)n(C)n(-c3ccccc3)c2=O)c1O	-10	1.39
Cc1cccc(C(=O)Nc2cccc(CCc3nc4ccccc4n3C)c2)c1	-10	1.12
Cc1ccc(NCn2c(=S)oc3ccccc32)nc1	-37	4.29
Cc1n[nH]nc1-c1nc(-c2ccncc2)nn1[C@H]1CCS(=O)(=O)C1	-6	0.87
COc1cccc(C(=O)NC[C@H]2CCCN(Cc3cccc4cccnc34)C2)c1OC	10	-1.86
Cc1nn(C)c(C)c1S(=O)(=O)N[C@@H](C)C1CC1	9	-1.8
CN(CC1COCCO1)C(=O)CC1(c2cccc(F)c2)CC(=O)N(Cc2cccnc2)C1=O (configuration not stated)	-14	1.81
COCCN(CCCOc1ccc(C(N)=O)cc1)CCOc1ccccc1F	2	-0.37
c1ccc(CCCN2CCCC[C@@H]2Cn2cncn2)cc1	-2	0.23
Cn1ncc(CN2CCC[C@H](c3n[nH]c(C4CCCCC4)n3)C2)c1C(F)(F)F	-10	1.34

SMILES	% Inhibition [%]	Z score
CCCN(CCC)c1nc(N)nc(C#N)n1	-3	0.32
CN(C)C(=O)c1cnc(-c2ccc3c(c2)CCO3)s1	9	-1.01
O=c1ccc(CN2CCN(c3ccccc3F)CC2)cn1CC1CC1	2	-0.44
Cc1ccc(C(=O)N2CCC(c3nc(-c4ccc5c(c4)OCO5)no3)CC2)cc1	6	-0.87
CCCN(Cc1nccn1C)C(=O)Nc1ccc2c(c1)O[C@@H](C)C(=O)N2C	-8	1.1
N#Cc1cccc(C(=O)NC2(Cc3ccccc3Br)CC2)n1	-5	0.78
CC(NC1CCN(C2CCCCC2O)CC1)c1ccsc1 (configuration not stated)	7	-0.93
CCOC[C@H]1CCN(C(=O)C2CCCCCC2)C1	-9	1.26
CCCN(CCC)C[C@H](O)COc1c(Cl)cccc1Cl	-6	0.67
C[C@@H](Cc1ccco1)NC(=O)NC1CC1	-11	1.16
COc1ccc(S(=O)(=O)N2CC(C)N(C(=O)N(C)C)C2C)cc1 (configuration not stated)	-6	0.72
CCc1nc(C)ncc1C(=O)OCc1nccn1Cc1ccccc1	31	-1.06
COCc1nncn1C1CCN(C(=O)Cc2ccc(Cl)cc2)CC1	-2	0.43
Cn1ccnc1CN1CCc2[nH]nc(-c3ccc4c(c3)OC(F)(F)O4)c2C1	4	-0.49
Cc1ccn2c(CNCC3CN(C(=O)c4ccccc4)C4CCN3C4)cnc2c1 (configuration not stated)	4	-0.71
N#Cc1cccc(N(C(=O)COC[C@H]2CCCO2)C2CCC2)c1	-7	1.25
CC[C@H](NC(=O)c1ncccc1C)C1CC(O)C1 (some centres not stated)	-15	1.37
Cc1ccc(C)c(-n2ncnc2[C@@H]2C[C@@H](O)CN2)c1	0	-0.04
